“And” between values parts separate entries of the source, which are not always exact repeats. Equal entries are not always repeated. In all, about 48,000 compounds went through this assay and about 1,200 (2.5%) were called active. Not shown: some 2% with an inconclusive outcome.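 How the source made its calls: active means activation of at least 60% and not above a set upper limit (about 1 call in 100 departs from these limits); inconclusive means activation of 40% to 60%, or above that upper limit; inactive means activation under 40%.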 The list shows a part of the results.

UniProt O75388, sequence (O75388 whole entry, looked up): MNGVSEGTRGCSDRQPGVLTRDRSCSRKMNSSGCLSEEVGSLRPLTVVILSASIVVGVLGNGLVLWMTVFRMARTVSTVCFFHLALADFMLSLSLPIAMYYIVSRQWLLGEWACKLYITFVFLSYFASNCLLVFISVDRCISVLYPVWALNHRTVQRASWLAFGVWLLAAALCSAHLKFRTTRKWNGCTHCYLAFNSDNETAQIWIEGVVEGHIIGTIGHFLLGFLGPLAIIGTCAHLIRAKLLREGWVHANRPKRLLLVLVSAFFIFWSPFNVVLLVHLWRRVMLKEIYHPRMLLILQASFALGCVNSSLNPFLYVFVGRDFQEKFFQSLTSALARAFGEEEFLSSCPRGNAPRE

The target in this test is Probable G-protein coupled receptor 32 (Homo sapiens) (UniProt O75388). Nature of the test: qHTS for Agonists of Human Resolvin D1 Receptor DRV1. Further: 0% is about no effect. As to conditions: CHO-K1 GPR32 beta-arrestin PathHunter luminescence, 90 min; at 76.9 µM; hits give high values; zero percent set by DMSO-only wells. The gist of the method:
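Luminescent readout of beta-Gal complementation quantifies ligand-induced beta-arrestin association with GPR32 in CHO-K1 cells; 90 min compound incubation at 37 °C, detection 1 h at room temperature.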
In general terms: qHTS replaces the single test concentration by a dilution series.
On to `NC(=O)NNc1ccccc1`, for which the activation was inactive: -14%.

Take `CC(C)Oc1ccc(CNC(=O)C2CCCN(S(=O)(=O)c3ccc4c(ccn4C)c3)C2)cc1` (stereo not drawn): the activation was inactive: 2.58%.

For `CCCn1cc(S(=O)(=O)c2ccc(OC)cc2)c(=O)c2cc(F)c(N3CCCCCC3)cc21`, the activation was inactive: -4.55%.

On to `Cc1ccc(CSc2nnc3[nH]c(=O)cc(C)n23)cc1`, for which the activation is inactive: 31%.

`CCn1cc(S(=O)(=O)c2ccc(C)cc2C)c(=O)c2cc(F)c(N3CCCC3)cc21`: the activation was inactive: -11.6%.

As to `COc1ccc(CN2CCN(S(=O)(=O)c3ccccc3)CC2)c(OC)c1`, the activation was inactive: 15.2%.

For `CCC(=O)N1c2ccccc2CC1C(=O)NCCc1ccc(OC)cc1OC` (stereo not drawn), the activation was inactive: 14.9%.

Regarding `CCCN1C(=O)C2(c3ccccc31)c1c(oc3cc(C)c(C)cc3c1=O)C(=O)N2CCCOC` (stereo not drawn), the activation is inactive: 12.2%.

Consider `COc1cccc(CNC(=O)CCc2c(C)nn(-c3ccc(N4CCOCC4)nn3)c2C)c1`, for which the activation was inactive: 5.49%.

In the case of `COc1ccc(OC)c(NC(=O)[C@H](Cc2ccccc2)N2Cc3ccccc3C2=O)c1`, the activation is inactive: -14%.

As to `O=C(CC1C(=O)N(c2ccccc2)C(=O)N1CCc1cccs1)Nc1ccc(Cl)cc1` (stereo not drawn), the activation was inactive: -1.39%.

Regarding `Cc1c(C(=O)Nc2cccc(C(F)(F)F)c2)oc2ccc(S(=O)(=O)N(C)C3CCCCC3)cc12`, the activation was inactive: -5.34%.

As for `CCNC(=O)c1ccc(-n2c(-c3ccccc3)cc3c2CCCCC3)cc1`, the activation was inactive: -18.8%.

For the molecule `CCOC(=O)CNc1ncnc2c1nnn2C`, the activation was inactive: -12.4%.

Consider `CC(=O)Nc1nonc1-c1nnc(SCc2ccc(C)cc2)n1C`, for which the activation was inactive: -23.7%.

In the case of `Cc1cccn2c(=O)c(/C=C(\C#N)c3nc4ccccc4n3C)c(Oc3ccc(Cl)cc3)nc12`, the activation was inactive: -30.2%.

For the molecule `CCCc1cc(=O)[nH]c2nnc(SCC(=O)Nc3cccc(C)c3)n12`, the activation was inactive: 2.45%.

Consider `CCCNC(=O)c1c2c(nc3ccccc13)C(=O)N(C1CCCCC1)C2`, for which the activation is inactive: 7.26%.

For `COc1cccc(-c2cc(C(=O)Nc3ccc(F)cc3)[nH]n2)c1`, the activation is inactive: 38.4%.

As for `CC(C)(O)c1ccccc1CC[C@@H](SCC1(CC(=O)O)CC1)c1cccc(/C=C/c2ccc3ccc(Cl)cc3n2)c1`, the activation is inactive: 30.4%.

On to `Cc1cc(OCC(=O)Nc2ncn[nH]2)c(C)c(C)c1Br`, for which the activation is inactive: 24.6%.

Take `Cc1cc(C)cc(N2C(=O)CS(=O)(=O)C23C(=O)N(Cc2ccccc2)c2ccccc23)c1` (stereo not drawn): the activation was inactive: -5.36%.

In the case of `CCc1cc(=O)[nH]c(SCc2nc(-c3ccccc3C)no2)n1`, the activation is inactive: 28%.

As to `CCOC(=O)C1CCN(c2ncnc3c2c(-c2ccccc2)cn3-c2ccc(C)c(Cl)c2)CC1`, the activation was inactive: -6.24%.

Turning to `COc1ccc(-c2cc(C(F)(F)F)nc(SCC(=O)Nc3ccc(C(C)=O)cc3)n2)cc1`, the activation is inactive: -13.5%.

For `COc1nnc(-c2ccc(N3CCCCC3)c(NC(=O)c3ccc(Cl)cc3)c2)c2ccccc12`, the activation is inactive: 6.4%.

With `O=C(NCCc1csc(-c2ccc(F)cc2)n1)C(=O)Nc1ccc(Cl)cc1`, the activation is inactive: -3.29%.

For the molecule `O=C1NC(=O)C(c2ccccc2)(c2ccccc2)N1`, the activation was inactive: -5.76% and inactive: -11.9% and inactive: 6.67%.

Take `COc1ccc(OC)c(NC(=O)c2nc(SCc3ccc(F)cc3)ncc2Cl)c1`: the activation was inactive: -2.43%.

On to `CCC(=O)N1c2ccc(S(=O)(=O)NCCc3ccccc3)cc2CC1C` (stereo not drawn), for which the activation was inactive: 42.6%.

Regarding `O=C(/C=C/c1cn(CC(O)CN2CCc3ccccc32)c2ccccc12)c1ccc(Br)cc1` (stereo not drawn), the activation is inactive: 1.57%.

Take `COC(=O)c1ccccc1NC(=O)N(Cc1ccc(C)cc1)Cc1cccn1-c1nnc(N2CCCC2=O)s1`: the activation was inactive: -5.55%.

As for `COc1ccc(C)cc1NC(=O)C1CCN(S(=O)(=O)c2cccc3nonc23)CC1`, the activation was inactive: -1.24%.

As to `Cc1ccc(CNS(=O)(=O)c2c(C(=O)N3CCC(C)CC3)c(C)n(C)c2C)cc1`, the activation was inactive: -21.1%.

In the case of `CCOC(=O)c1[nH]c(C)c(CCC(=O)NCc2ccc(OC(C)C)cc2)c1C`, the activation was inactive: -20.8%.

On to `Cc1sc2ncn(CC(=O)Nc3ccc(C(F)(F)F)cc3)c(=O)c2c1S(=O)(=O)N1CCN(C)CC1`, for which the activation is inactive: -5.03%.

Take `Cc1cc(Nc2cccc(O)c2)c2cccc(Br)c2n1`: the activation was active: 119%.

For the molecule `CCc1ccc(S(=O)(=O)c2cn(CC(=O)Nc3cccc(C)c3)c3ccc(Cl)cc3c2=O)cc1`, the activation is inactive: 45.1%.

For the molecule `Cc1cccc(NC(=O)CSc2nnc3c4ccccc4n(C)c3n2)c1`, the activation was inactive: 24.2%.

As to `O=C(CCn1cnnn1)Nc1ccccc1`, the activation was inactive: 0.616%.

Regarding `O=C(CSc1nc2c([nH]c3ccccc32)c(=O)n1-c1ccccc1)Nc1ccccc1F`, the activation is inactive: -54%.

For `Cc1ccc(-c2c(C)n3c4c(=O)n(C)c(=O)n(C)c4nc3n2CCCO)cc1`, the activation was active: 60.3%.

Regarding `CCOc1ccc(NC(=O)C2CCCN(S(=O)(=O)c3ccc(Br)s3)C2)cc1` (stereo not drawn), the activation was inactive: -2.89%.

As to `CCOC(=O)c1ccccc1NC(=O)Cn1c(=O)n(Cc2ccc(C(=O)NCc3ccc4c(c3)OCO4)cc2)c(=O)c2ccccc21`, the activation is inactive: 19.9%.

Regarding `COc1ccc(C(=O)Nc2cccc(-c3nc4cccnc4s3)c2C)c(OC)c1`, the activation is inactive: 0.363%.

As to `CC(=O)N1c2c(cc(Br)cc2S(=O)(=O)Nc2ccccc2C)CC1C` (stereo not drawn), the activation was inactive: 0.628%.

As to `Cc1cccc(C(=O)NC(=O)Nc2ccc(-n3nc(C(F)(F)F)cc3C(F)(F)F)cc2)c1`, the activation is inactive: 0.225%.

Regarding `CC(=O)N1CCCc2cc(S(=O)(=O)N3CCC(N(C)C(C)C)CC3)ccc21`, the activation is inactive: -3.8%.

With `Cc1c2cnn(CC(=O)NCc3ccc(F)cc3)c(=O)c2c(C)n1Cc1ccccc1Cl`, the activation is inactive: -5.37%.

Regarding `COc1cccc(Cn2cnc3c2c(=O)n(C)c(=O)n3C)c1`, the activation is inactive: 22.3%.

Take `CCOc1cc(Br)c(C2C(C(=O)OC)=C(C)NC3=C2C(=O)c2ccccc23)cc1OCC` (stereo not drawn): the activation was inactive: -42.5%.

For the molecule `COCCCNC(=O)C1CCN(c2ncnc3c2nc2n3CCCCC2)CC1`, the activation is inactive: -11.7%.

With `O=C(Nc1cccc(C(F)(F)F)c1)c1ccc(F)c(S(=O)(=O)N2CCc3ccccc3C2)c1`, the activation is inactive: -9.56%.

For `COc1ccc2c(c1)c1c(c(=O)n(-c3ccc(C)cc3)c(=O)n1CC(=O)Nc1cc(C)ccc1C)n2C`, the activation was inactive: -8.36%.

Regarding `Cc1nc2c(C(=O)NCCC(C)C)cnn2c(C)c1Cc1c(F)cccc1Cl`, the activation is inactive: -11%.

With `CCC(C)NC(=O)C1CCN(S(=O)(=O)c2ccc3c(ccn3CC)c2)CC1` (stereo not drawn), the activation was inactive: 2.64%.

Consider `O=C(O)c1ccccc1NC(=O)N1c2ccccc2Sc2ccccc21`, for which the activation was inactive: 19.9%.

On to `COc1ccccc1CNC(=O)c1cc2cc(S(=O)(=O)N3CCCCC3)ccc2n1C`, for which the activation is inactive: 0.513%.

In the case of `CCOC(=O)C1CCCN(C(=O)C2CCN(S(=O)(=O)c3c(C)noc3/C=C/c3ccc(C)cc3)CC2)C1` (stereo not drawn), the activation is inactive: 10.1%.

Take `COc1cccc2sc(N(Cc3cccnc3)C(=O)c3ccc(S(=O)(=O)N(C)C)cc3)nc12`: the activation was inactive: -22.3%.

For `COc1cc2c(cc1OC)C(c1cc(OC)c(O)c(OC)c1)CC(=O)N2` (stereo not drawn), the activation is inactive: 9.96%.

On to `CC1CCCN(Cc2c(O)ccc3c(=O)c(-c4ccc(Cl)cc4)c(C(F)(F)F)oc23)C1` (stereo not drawn), for which the activation is inactive: -18.3%.

For `Cc1ccc(OCc2cc(=O)n3cc(C)sc3n2)c(C)c1`, the activation is inactive: -16.6%.

As for `COc1ccc(S(=O)(=O)c2cn(C)c3cc(N4CCOCC4)c(F)cc3c2=O)cc1`, the activation is inactive: -6.34%.

In the case of `COC(=O)CC1Oc2ccc(Cl)cc2-n2cc(-c3ccc(F)cc3)nc21` (stereo not drawn), the activation was inactive: 18%.

For `O=C(COc1ccccc1)Nc1c(Cl)ccc2nsnc12`, the activation is inactive: 43.7%.

As for `CCc1ccc(OCC(=O)Nc2ccc(Cl)c(-c3nc4ncccc4o3)c2)cc1`, the activation is active: 118%.

Turning to `CCc1ccc(OCC(=O)Nc2ccc3oc(-c4ccc(OC)cc4)nc3c2)cc1`, the activation is inactive: 10.5%.

Turning to `CC(=O)N1CCc2cc(S(=O)(=O)N3CCN(c4ccc(C)cc4)C(C)C3)ccc21` (stereo not drawn), the activation was inactive: 6.58%.

Turning to `CCOc1ccc(S(=O)(=O)NCC(c2cccs2)S(=O)(=O)c2ccc(C)cc2)cc1` (stereo not drawn), the activation was inactive: -21.6%.

As to `CCN1CCN(C(=O)c2c(C)nn(-c3ccc(F)cc3)c2-n2cccc2)CC1`, the activation is inactive: 6.86%.

In the case of `CC(C)(C)NC(=O)CCSc1nc(-c2ccc3c(c2)OCO3)cc(C(F)(F)F)n1`, the activation was inactive: -1.2%.

Consider `Cc1cc(-c2nc3ncccc3o2)ccc1NC(=O)COc1cc(C)c(Cl)c(C)c1`, for which the activation is inactive: 7.74%.

On to `CCC(C(=O)NCCc1cc(OC)ccc1OC)n1nc(C)c2sc3ccccc3c2c1=O` (stereo not drawn), for which the activation is inactive: -20.8%.

As for `Cc1c(C(=O)OCCOc2ccccc2)[nH]c2c1C(=O)CC(c1ccccc1Cl)C2` (stereo not drawn), the activation was inactive: -17.1%.

In the case of `CCOC(=O)c1cccc(NC(=O)c2nn(-c3ccc(OC)cc3)c(=O)c3c2c2ccccc2n3C)c1`, the activation is inactive: -13.2%.

As to `CN(Cc1ccccc1)c1ccc(-c2nc(-c3cccnc3)no2)cc1[N+](=O)[O-]`, the activation was inactive: 0%.

Turning to `CCN(Cc1ccccc1)S(=O)(=O)c1ccc2[nH]c3c(c2c1)CCCCC3`, the activation is inactive: 32.9%.

On to `Cc1ccc(C)c(NC(=O)CSc2nc(-c3ccccc3Cl)nc3c2Cc2c(CO)cnc(C)c2O3)c1`, for which the activation is inactive: -27.4%.

As to `CCOC(=O)c1cnc2nc(NCc3ccc(OCC)cc3)[nH]n2c1=O`, the activation was inactive: -5.09%.

With `CCCCOc1ccc(C(=O)NCCc2csc(-c3ccc(OC)cc3)n2)cc1`, the activation is inactive: -2.32%.

As to `CN(C)c1ccc(CNC(=O)c2cccn2-c2nnc(N3CCCCC3)s2)cc1`, the activation is inactive: -15.9%.

`O=C(NCc1ccc(F)cc1)C(=O)NCC(c1cccs1)S(=O)(=O)c1cccs1` (stereo not drawn): the activation was inactive: -9.75%.
